# Data as given in PMC4336329 (PLoS ONE, 2015).
# Hit rate of the full screen: of about 310,000 compounds, about 14,000 (4.5%) showed an effect of 50% or more. Effects have a minus sign here. The list shows a part of the results.
# Biological target: human ether-à-go-go-related gene (hERG) potassium channel (human, UniProt Q12809)
# Experiment: primary screen, population patch clamp on CHO cells stably expressing hERG
# 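Also: peak tail current of the secondary pulse compared with the same well before compound.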
# human ether-à-go-go-related gene (hERG) potassium channel, sequence (Q12809 whole entry, looked up): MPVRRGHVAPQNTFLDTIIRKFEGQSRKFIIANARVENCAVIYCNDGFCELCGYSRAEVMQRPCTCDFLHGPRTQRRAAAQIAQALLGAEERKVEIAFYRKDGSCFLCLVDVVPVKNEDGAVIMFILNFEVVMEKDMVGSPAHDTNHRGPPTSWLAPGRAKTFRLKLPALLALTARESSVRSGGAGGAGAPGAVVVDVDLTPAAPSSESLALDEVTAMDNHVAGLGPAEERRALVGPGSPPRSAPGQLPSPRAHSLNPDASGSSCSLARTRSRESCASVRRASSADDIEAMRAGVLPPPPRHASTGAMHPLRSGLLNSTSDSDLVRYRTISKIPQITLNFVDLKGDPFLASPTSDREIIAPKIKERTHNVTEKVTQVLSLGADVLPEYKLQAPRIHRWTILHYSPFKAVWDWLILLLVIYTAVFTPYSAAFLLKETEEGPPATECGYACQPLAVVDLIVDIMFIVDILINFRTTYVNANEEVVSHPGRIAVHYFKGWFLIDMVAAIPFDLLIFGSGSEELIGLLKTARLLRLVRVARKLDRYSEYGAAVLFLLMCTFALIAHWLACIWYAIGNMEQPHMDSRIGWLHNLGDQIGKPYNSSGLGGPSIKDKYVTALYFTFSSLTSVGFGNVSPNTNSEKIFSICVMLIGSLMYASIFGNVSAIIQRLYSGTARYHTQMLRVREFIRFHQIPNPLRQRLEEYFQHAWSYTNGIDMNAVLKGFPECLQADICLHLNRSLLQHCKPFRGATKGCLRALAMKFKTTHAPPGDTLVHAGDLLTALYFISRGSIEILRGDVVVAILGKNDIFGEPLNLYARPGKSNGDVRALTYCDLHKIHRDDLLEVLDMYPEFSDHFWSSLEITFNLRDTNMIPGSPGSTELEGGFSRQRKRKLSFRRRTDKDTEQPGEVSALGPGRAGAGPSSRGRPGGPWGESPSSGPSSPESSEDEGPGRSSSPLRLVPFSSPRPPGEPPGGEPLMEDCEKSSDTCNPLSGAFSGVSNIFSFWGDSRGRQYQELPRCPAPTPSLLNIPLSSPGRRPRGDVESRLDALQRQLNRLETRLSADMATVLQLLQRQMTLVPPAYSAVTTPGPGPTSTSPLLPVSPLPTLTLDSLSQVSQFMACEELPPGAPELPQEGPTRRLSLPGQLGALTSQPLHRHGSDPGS
row,SMILES,"hERG current change (%, negative = inhibition) at 10uM"
1,CN1CCN(Cc2nnc3n2-c2ccc(Cl)cc2C(c2ccccc2)=NC3)CC1.O=CO,-64.7%
2,CC(C)c1ccc(NC(=O)CCc2ccccc2)cc1,11.8%
3,O=C(NC1CCOC1)c1ccc(OC2CCN(CCc3ccccc3)CC2)cc1 (centres unmarked),-39.8%
4,CCCCCCCn1ccc(=N)cc1.I,-14.7%
5,Nc1ccc(SC(F)(F)F)cc1,38.3%
6,Cc1ccc(S(=O)(=O)N/N=C/c2cc(Br)ccc2O)cc1,5.71%
7,O=C(O)c1ccc(S(=O)(=O)NCC2CCCCC2)cc1,13.2%
8,OC(C#CCN1CCCCC1)c1ccccc1 (centres unmarked),-4.92%
9,COc1ccc(CN2CCCC(C(=O)N3CCc4ccccc4C3)C2)cc1OC (centres unmarked),-62%
10,COc1cc(OC)c(OC)cc1CNCCNC(=O)c1nonc1N.Cl,-0.502%
11,O=C(NCc1ccco1)c1ccc2c(=O)n(-c3ccccc3)c(=S)[nH]c2c1,7.36%
12,Cc1ccc(C)c(OCc2nnc(SCC(=O)NC(=O)NCc3ccco3)o2)c1,16.7%
13,Fc1ccc(/C=N/NC(=S)NCCc2ccccc2)cc1F,17.2%
14,Cc1ccc(S(=O)(=O)N2CCN(c3ncnc4sccc34)CC2)cc1,-35.7%
15,Cc1cc(C)cc(NC(=O)COC(=O)CC2CCCC2)c1,-0.633%
16,O=c1oc2cc(O)ccc2cc1-c1ccc(F)cc1,2.96%
17,COc1cccc(C(=O)C2CCCN(Cc3ccc(OC)c(Cn4cncn4)c3)C2)c1 (centres unmarked),-58.6%
18,COc1ccc(N(CC(=O)N2CCN(c3cccc(Cl)c3)CC2)S(=O)(=O)c2c(C)noc2C)cc1,16.7%
19,CNc1cc(CSc2ccc(Cl)cc2)nc(C)n1,11.1%
20,CN(CC(=O)Nc1ccc(Cl)cc1)C(=O)c1sccc1-c1ccccc1,-16.5%
21,C=CCn1c(SCC(=O)N2CCOCC2)nc2ccccc2c1=O,-28.4%
22,CCc1ccc(C(C)NC(=O)Cc2ccc(F)cc2)cc1 (centres unmarked),3.7%
23,Cc1cccc(Nc2nc(N3CCOCC3)nc(N3CCOCC3)n2)c1,-13.1%

row,SMILES,"hERG current change (%, negative = inhibition) at 10uM"
1,COc1cccc(Oc2nc(N)ncc2[N+](=O)[O-])c1,22.1%
2,O=C(c1ccccc1)N1CCN(c2ccc([N+](=O)[O-])c(N3CCOCC3)c2)CC1,-7.22%
3,Cc1nnc(SCC(=O)Nc2nc3c(s2)CC(C)CC3)s1 (centres unmarked),-7.17%
4,Cc1nn(C)c(C(=O)N/N=C/c2ccc(-c3ccccc3)cc2)c1Cl,11.6%
5,CCn1cc(C2=NC(C(C)C)CO2)c2ccccc21 (centres unmarked),-3.97%
6,c1csc(-c2ccc(N3CCOCC3)nn2)c1,-13.9%
7,O=C(O)CONC(=O)c1cc(OCC(F)(F)F)ccc1OCC(F)(F)F,12.5%
8,CNC(=S)NNS(=O)(=O)c1ccc(OC)cc1OC,19.5%
9,C=CCn1c(-c2cccc(OC)c2)nc2nc3ccccc3nc21,-2.04%
10,Cc1ccc(C)c(C(=O)COC(=O)c2ccccc2N2C(=O)C3C4CCC(C4)C3C2=O)c1 (centres unmarked),-2.6%
11,C=CCOc1c(Br)cc(CNc2nccs2)cc1OC,-19.5%
12,COC(=O)c1ccccc1NC(=O)CS(=O)(=O)Cc1nc(-c2ccc(C)cc2)oc1C,13.5%
13,CCCCCOC(=O)NCC(O)c1ccccc1 (centres unmarked),7.39%
14,Cc1cc([N+](=O)[O-])nn1CCCC(=O)NC1CCCCC1,0.172%
15,O=C(c1ccc(CS(=O)Cc2cccc(Cl)c2)o1)N1CCN(C2CCCCC2)CC1 (centres unmarked),-16.5%
16,O=C(CC1NCCc2ccccc21)Nc1cccc(Cl)c1 (centres unmarked),-16.6%
17,COc1ccc(CC(=O)Oc2ccccc2C)cc1S(=O)(=O)N1CCOCC1,-9.73%
18,COCCOC(=O)C1=C(C)Nc2nc(C)nn2C1c1ccccc1 (centres unmarked),1.58%
19,Cc1cc2oc(C(=O)NC3CCS(=O)(=O)C3)c(C)c2cc1C (centres unmarked),2.69%
20,CNc1nc(-c2ccccc2)cc(C(F)(F)F)c1C#N,-0.0555%
21,Cc1noc(C)c1COC(=O)CCc1ccc(S(=O)(=O)N2CCCCC2)cc1,-25.9%
22,O=C(Nc1ccccc1SCC1CSc2nc3ccccc3c(=O)n21)c1cccc(Cl)c1 (centres unmarked),-75.5%
23,CC(=O)NS(=O)(=O)c1ccc2sc(C)nc2c1,19.7%

row,SMILES,"hERG current change (%, negative = inhibition) at 10uM"
1,CC(=O)Nc1ccc(Nc2nc(C)cc(C)n2)cc1,13.9%
2,CCCn1c(SCC(=O)Nc2cc(S(=O)(=O)N3CCCCC3)ccc2C)n[nH]c1=O,-20.5%
3,COc1cccc(Nc2nc(-c3ccccc3)nc3ccccc23)c1,11.2%
4,O=C1NC(=O)C(Cc2ccccc2)(c2cccnc2)N1 (centres unmarked),17.7%
5,Cc1cc(Br)ccc1NC(=O)C1CCN(S(=O)(=O)c2cnc[nH]2)CC1,8.88%
6,CSc1nc(N2CCN(Cc3ccc4c(c3)OCO4)CC2)c2ccccc2n1,-16.7%
7,CC(NCC(O)c1ccc([N+](=O)[O-])cc1)C12CC3CC(CC(C3)C1)C2 (centres unmarked),-69.4%
8,O=C(Nc1nc2c(s1)CCCC2)c1cc(-c2ccccc2)nc2ccccc12,1.32%
9,Cc1noc(C(F)(F)F)c1C(=O)NNC(=O)c1cccc(C(F)(F)F)c1,7.51%
10,c1coc(CN2CNc3nc4ccccc4n3C2)c1,10%
11,S=c1[nH]ccn1CCc1ccccc1,22.7%
12,O=C(COC(=O)CCSc1ccccc1)NCc1ccc(F)cc1,14.3%
13,Cc1onc(-c2ccccc2)c1C(=O)Nc1ccc(Br)cc1Cl,23.5%
14,COc1ccc(Nc2ncnc3nc[nH]c23)cc1OC,14%
15,CCCC(=O)Nc1cc(C(=O)O)ccc1Sc1ccc(C)cc1,4.5%
16,CCOC(=O)CNc1cccc(C(F)(F)F)c1,1.17%
17,CC1(C)CC(=O)C(C=Nc2cccnc2/N=C/C2=C(O)CC(C)(C)CC2=O)=C(O)C1,14%
18,COc1c(Br)cc(Br)cc1/C=C1/C(=O)N=C(N)N1C,-6.22%
19,COc1cccc2sc(NNC(=O)C3COc4ccccc4O3)nc12 (centres unmarked),14.6%
20,Cc1ccc(CNC(=O)CCNC(=O)c2ccc(Br)o2)cc1,-0.891%
21,Cc1ccc(S(=O)(=O)N2[C@@H](c3ccccc3F)C(C(=O)O)=CC[C@H]2c2ccc(Cl)cc2)cc1,9.58%
22,CC1(C)Cc2ccccc2C(NNC(=O)c2ccc(Br)o2)=N1,2.54%
23,Cc1ccc(CNC(=O)CC(C)S(=O)(=O)c2ccc3c(c2)NC(=O)CS3)o1 (centres unmarked),-0.00952%

row,SMILES,"hERG current change (%, negative = inhibition) at 10uM"
1,CC1CCc2nc(N)c(C#N)c(-c3cccn3C)c2C1 (centres unmarked),9.35%
2,COc1cccc(-c2cc(C(=O)Nc3ccccc3)c3ccccc3n2)c1,8.07%
3,COc1ccc(CCC(=O)NCc2cn3ccccc3n2)cc1,-2.46%
4,CCC(=O)c1c[nH]c(C(=O)NCC2CCCO2)c1 (centres unmarked),-1.32%
5,Cn1ncc(Cl)c1C(=O)NCc1ccco1,2.11%
6,CC(C)=NNC(=O)CN1C(=O)NC2NC(=O)NC21 (centres unmarked),13.2%
7,N#Cc1c(Nc2ccccc2)c(C=NCCN2CCOCC2)c[nH]c1=O,14.2%
8,CCn1c(=O)c(C(=O)NNC(=O)c2ccccc2Br)c(O)c2ccccc21,7.21%
9,COc1cccc(Cn2nc3c4cc(F)ccc4n(Cc4ccc(F)cc4)cc-3c2=O)c1,19.3%
10,O=C(O)/C=C/C(=O)Nc1ccc(-n2nccc2C(F)(F)F)cc1,15%
11,CCOC(=O)c1ccc(NS(=O)(=O)c2cn(C)cn2)cc1,14.7%
12,CCN(CC(=O)Nc1cc(Cl)ccc1C)c1ncnc2sc(C)c(C)c12,-24.5%
13,CSc1ccc(CN2CCc3c([nH]c4ccccc34)C2)cc1,-52.7%
14,CCCCCCC(=O)NNC(=O)c1c(O)c2ccccc2n(CCC)c1=O,3.41%
15,Cc1ccc(S(=O)(=O)N2N=C3CCCCC3C2(O)C(F)(F)F)cc1 (centres unmarked),4.99%
16,COc1ccc(N(CC(=O)NCc2ccc3c(c2)OCO3)C(=O)c2csnn2)cc1,-13.6%
17,Cc1ccc(S(=O)(=O)Nc2ccccc2CNc2cccc(C)n2)cc1,-5.51%
18,Cc1ccc2c(c1)C(c1ccncc1)=NNC(c1cccnc1)=N2,-4.46%
19,O=C(Nc1nc(-c2ccccn2)cs1)c1cc(Cl)ccc1[N+](=O)[O-],-5.92%
20,O=C(NCc1ccc2c(c1)OCO2)C(=O)NCC1OCCCN1S(=O)(=O)c1ccc(F)cc1 (centres unmarked),-11.2%
21,COC(=O)C(NC(=O)COc1ccccc1)(Nc1nc2c(s1)CCCC2)C(F)(F)F (centres unmarked),13.1%
22,O=C(COC(=O)CCc1nc2ccccc2c(=O)[nH]1)Nc1ccc(N2CCOCC2)cc1,-8.78%
23,O=C(C[n+]1ccc(-c2nnc3n2CCC3)cc1)c1ccc(Cl)c(Cl)c1.[Br-],-14%
